Where “and” joins values, the source holds several entries; their conditions need not be identical. Equal entries are not always repeated. In all, about 16,000 compounds went through this assay and about 40 (0.2%) were called active. Not shown: some 1% with an inconclusive outcome. The call rests on the fitted dose curve; in most records, active means well fitted activation curve with a large enough effect; inconclusive means small, poorly fitted or top-dose-only effect, or another doubt; inactive means no such curve, though single readings can be large or run the other way. Some of the results follow.
target: Rap guanine nucleotide exchange factor 4 (Homo sapiens) (UniProt Q8WZA2); assay: Validation qHTS for agonist of cAMP-regulated guanine nucleotide exchange factor 4 (EPAC2); details: EPAC2 Rap1B BODIPY-GDP exchange, fluorescence; activation: active compounds read high;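 further: exchange makes BODIPY-GDP fluorescence drop when released from Rap1B; series mostly up to about 150 µM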
Procedure, shortened: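 Signal normalized against 6.5 mM cAMP as agonist control. Mix of EPAC2 (100 nM), RAP1B-BODIPY-GDP (250 nM) and GDP (50 uM) was read kinetically at 480/540 nm, every 5 min over 30 min, after 5 min room-temperature incubation with compound.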
On the % scale 0 is the no-effect control and ±100 the full control effect.

UniProt Q8WZA2, sequence (Q8WZA2 whole entry, looked up): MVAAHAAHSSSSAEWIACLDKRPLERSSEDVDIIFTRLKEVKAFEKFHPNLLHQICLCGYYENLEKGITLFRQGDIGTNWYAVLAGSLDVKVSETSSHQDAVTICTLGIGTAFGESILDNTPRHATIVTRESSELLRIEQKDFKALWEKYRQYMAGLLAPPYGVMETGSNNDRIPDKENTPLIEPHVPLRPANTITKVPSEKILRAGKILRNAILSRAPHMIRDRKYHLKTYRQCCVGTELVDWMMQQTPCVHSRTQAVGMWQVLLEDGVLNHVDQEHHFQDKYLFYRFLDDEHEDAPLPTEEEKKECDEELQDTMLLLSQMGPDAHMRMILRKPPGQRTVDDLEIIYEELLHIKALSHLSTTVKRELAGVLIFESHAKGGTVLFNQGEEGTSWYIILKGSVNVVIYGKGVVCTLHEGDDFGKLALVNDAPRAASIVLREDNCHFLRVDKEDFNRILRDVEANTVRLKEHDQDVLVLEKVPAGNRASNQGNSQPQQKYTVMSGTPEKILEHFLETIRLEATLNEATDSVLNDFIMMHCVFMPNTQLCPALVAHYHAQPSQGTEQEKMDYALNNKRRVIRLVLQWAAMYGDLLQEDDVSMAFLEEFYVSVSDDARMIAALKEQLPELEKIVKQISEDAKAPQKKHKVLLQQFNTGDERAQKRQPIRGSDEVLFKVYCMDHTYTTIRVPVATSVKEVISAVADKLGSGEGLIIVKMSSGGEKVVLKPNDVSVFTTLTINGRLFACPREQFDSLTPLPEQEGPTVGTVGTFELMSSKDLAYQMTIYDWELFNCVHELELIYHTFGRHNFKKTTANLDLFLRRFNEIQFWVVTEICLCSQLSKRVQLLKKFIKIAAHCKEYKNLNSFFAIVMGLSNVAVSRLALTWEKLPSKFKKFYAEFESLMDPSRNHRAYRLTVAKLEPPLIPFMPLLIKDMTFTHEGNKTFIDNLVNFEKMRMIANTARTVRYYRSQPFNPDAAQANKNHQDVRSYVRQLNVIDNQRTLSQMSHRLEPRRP

activation, inactive:
N#CC[C@H](Cc1ccccc1)N1CC[C@@H](NC(=O)OCc2ccccc2)CCC1=O -28.7%, Cc1cnc(CNc2ccnc(-c3cccnc3)n2)cn1 1.85%, O=C(NCCN1CCOCC1)c1cnn(-c2nccc(-c3ccccc3C(F)(F)F)n2)c1C1CC1 4.73%, COCCNc1ncnc2ccc(-c3ccc(N(C)C)cc3)cc12 -5.1%, CCCCC/C(C=O)=C\c1ccccc1 7.81%, O=C(Nc1ccccc1)N1CC[C@@]2(CCCN(C(=O)c3cc(C(F)(F)F)cc(C(F)(F)F)c3)C2)C1 -24.1%, Clc1ccc2c(c1)C(N1CCNCC1)=Nc1ccccc1O2 -7.13% and -10.8% and -27.4%, CC(C)N=C(N)/N=C(\N)Nc1ccc(Cl)cc1 8.03%, C[C@@H](CN(C)C[C@H]1C(=O)O[C@@H]2C[C@@]3(C)CCC[C@]4(CO4)C3CC21)[C@H](O)c1ccccc1 (some centres undefined) -0.0602%, O=C1c2ccccc2C(=O)C1c1ccccc1 10.4% and 9.12%, Cc1ncc2c(c1CNC(=O)c1ccccc1F)CCN(C(=O)c1[nH]c3ccc(Cl)cc3c1C)C2 7.7%, O=C(Cn1ccnc1[N+](=O)[O-])NCc1ccccc1 -11.2%, CC1(C)OC2C[C@](O)(C(N)=O)C[C@H](O)[C@H]2O1 (some centres undefined) -6.74%, COC(=O)c1c(OCc2cccnc2)cc(=O)n2c1CCN(C(=O)c1cccc(N(C)C)c1)CC2 -1.52%, Cc1cccc(CNC(=O)c2cnn(-c3ncc(C)c(-c4ccc(F)cc4)n3)c2C)n1 0.336%, C/C(=C(\CCO)SS/C(CCO)=C(\C)N(C=O)Cc1cnc(C)nc1N)N(C=O)Cc1cnc(C)nc1N 5.18%, CC[C@H]1OC(=O)[C@H](C)[C@@H](O[C@H]2C[C@@](C)(OC)[C@@H](O)[C@H](C)O2)[C@H](C)[C@@H](O[C@@H]2O[C@H](C)C[C@H](N(C)C)[C@H]2O)[C@](C)(O)C[C@@H](C)C(=O)[C@H](C)[C@@H](O)[C@]1(C)O -24.3% and -3.22%, COC(=O)C1C(O)CC[C@H]2CN3CCc4c([nH]c5ccccc45)C3C[C@H]12 (some centres undefined) 2.5%, COc1ccc(-n2c(=O)c(-c3ccc(Cl)cc3)nc3cnc(N4CCOCC4)nc32)cc1 -32.8%, COc1ccccc1C(=O)N[C@@H]1c2ccccc2C2(CCN(Cc3cnn(C)c3C)CC2)[C@H]1O -17%, CC(C(=O)O)c1ccc(CC2CCCC2=O)cc1 (centres undefined) -2.05% and -15.2%, O=C1CC[C@H](O)CCN1CCSc1ccc(Br)cc1 -22.3%, Cc1ccccc1C(=O)NC(C)c1nnc2n1CCN(Cc1ccnc3ccccc13)CC2 (centres undefined) -13.3%, CCOC(=O)C[C@H]1c2cc(F)ccc2S(=O)(=O)N1C(C)C -13.6%, Cc1c(C(=O)N(C)C2CCOC2)cnn1-c1ncc2c(n1)-c1ccccc1CCC2 (centres undefined) -4.71%, COc1ccc(CN2CCC3(CC2)c2ccccc2[C@@H](NC(=O)c2ccco2)[C@@H]3OC)c(O)c1 9.16%, CN(C)c1ccc(/C=C2\CCCCC2=O)cc1 -22.4%, COc1ccc(-c2nc3cc(F)ccc3cc2CN(C(=O)c2cccs2)C2CC2)cc1 -25.1%, CC1=C(/C=C/C(C)=C/C=C/C(C)=C/C=C/C=C(C)/C=C/C=C(C)/C=C/C2=C(C)CCCC2(C)C)C(C)(C)CCC1 -16.5%, O=C(Nc1ccccc1)[C@@H]1CC=C[C@@H]2CCN(Cc3ccc(Cl)c(Cl)c3)C(=O)[C@@H]21 -20.3%, COc1ccc(CNc2cc(-c3cccc(NS(C)(=O)=O)c3)ncn2)c(OC)c1 -3.23%, NC(=O)Nc1ccc(/C=C2\C=Cc3ccccc32)cc1 -10.9%, O=C(CCc1ccc(O)cc1)c1c(O)cc(O)cc1O[C@H]1OC(CO)C(O)C(O)C1O (some centres undefined) -10.1%, c1ccc(C(O[C@H]2CCCN(CCc3ccc4c(c3)OCO4)C2)c2ccccc2)cc1 1.94%, Cc1nc(N=Nc2cc(S(=O)(=O)O)ccc2S(=O)(=O)O)c(COP(=O)(O)O)c(C=O)c1O -7.72%, CCCCN1CC[C@H]2C=CC[C@@H](C(=O)Nc3ccc(Cl)cc3Cl)[C@H]2C1=O -23.5%, NC(=O)c1ccccc1O -13.3%, COc1ccc2[nH]cc(CCNc3nc(-c4c(C)noc4C)nc4ccccc34)c2c1 6.86%, Cc1cccc2cc(CN(C(=O)c3ccc(-c4ccc(F)cc4)cc3)C3CC3)c(N3CCC(O)CC3)nc12 -12.7%, COc1cc(CN2CCCC(n3cc(C(=O)N4CCCCC4)nn3)C2)cc(OC)c1 (centres undefined) -0.628%, COc1ccc(C(=O)CCC(=O)O)c2ccccc12 -25%, CCCN1CC(CSC)C[C@H]2c3cccc4[nH]cc(c34)C[C@H]21 (some centres undefined) -14.9%, CCCCN1CCC(n2c(=O)[nH]c3ccccc32)CC1 -59%, O=C(NOCC1CC1)c1ccc(F)c(F)c1Nc1ccc(I)cc1Cl 2.68%, COc1ccc(-c2nc3cnc(N4CCN(C)CC4)nc3n(C3CC3)c2=O)cc1 -5.51%, N[C@H](CC(=O)O)C(=O)O 9.77% and -0.752% and 2.84%, Cc1ccc(SCCN2CCC(O)CCC2=O)cc1 (centres undefined) -16.8%, COc1cc2c(cc1OC)C1C(=O)c3c(O)cc4c(c3OC1CO2)C=CC(C)(C)O4 (centres undefined) -15.5%, Oc1cc(-c2nc3ccccc3s2)cc2c1OCCN(Cc1cccn1-c1ccc(Cl)cn1)C2 -9.23%, COc1ccccc1C(=O)N[C@@H]1c2ccccc2C2(CCN(Cc3nccs3)CC2)[C@H]1OC 3.24%, COc1cc(O)c2c(=O)cc(-c3ccc(OC)c(-c4c(O)cc(O)c5c(=O)cc(-c6ccc(O)cc6)oc45)c3)oc2c1 -5.99%, Oc1c(Br)cc(Br)c2cccnc12 -8.37%, CCC(=O)O[C@H]1CC[C@H]2[C@@H]3CCc4cc(O)ccc4[C@H]3CC[C@]12C -14.7%, CS(=O)(=O)Nc1cccc(-c2nc(Nc3ccc(F)cc3)c3ccccc3n2)c1 -12.8%, CC(C)NC(=O)N1CC[C@@]2(CCCN(C(=O)c3ccco3)C2)C1 -12.5%, CO[C@@H]1[C@@H](O[C@@H]2O[C@H](C)[C@@H](O[C@H]3C[C@@](C)(O)[C@@H](O)[C@H](C)O3)[C@H](N(C)C)[C@H]2O)[C@@H](CC=O)C[C@@H](C)[C@@H](O[C@@H]2CC[C@H](N(C)C)[C@@H](C)O2)/C=C/C=C/C[C@@H](C)OC(=O)C[C@H]1O -7.58%, CC(C)C(C)/C=C/C(C)C1CCC2C3=CC=C4CC(O)CCC4(C)C3CCC21C (centres undefined) -26.7%, CCNc1ncc2nc(CCc3ccccc3)c(=O)n(C3CC3)c2n1 3.1%, CCCC(=O)c1cc(O)c(O)cc1O -14.8%, COc1ccc(-c2coc3cc(O)ccc3c2=O)cc1 2.87% and -11.7%, Cc1cnc(-n2ncc(C(=O)N(C)Cc3cccc4ncccc34)c2C(C)C)nc1-c1ccc(F)cc1 -6.77%, COc1ccccc1CN1CCCC(n2cc(C(=O)N3CCCCC3)nn2)C1 (centres undefined) -10.5%, O=c1c(-c2ccccc2)nc2cnc(N3CCNCC3)nc2n1-c1ccccc1 -4.12%, COC(F)(F)C(Cl)Cl -0.274%, O=C1C(c2c(O)[nH]c3ccccc23)=Nc2ccccc21 -7.63% and -4.93% and -0.438%, O=C(c1csnn1)N1CCC2(CCCN(Cc3ccccc3)C2)CC1 -1.97%, COCCn1c(=O)c(-c2cccs2)nc2cnc(N3CCNCC3)nc21 26.7%, O=C([C@@H]1C[C@@H](Sc2nc3ccccc3[nH]2)CN1Cc1c(F)cccc1F)N1CCOCC1 -18.6%, CCOC(=O)c1ccc(NC(=O)CN2CCCCC2)cc1 -10.5%, COc1ccc(CNc2cc(-c3cccnc3)ncn2)c(OC)c1 -9.11%, COCCn1c(=O)c(C)nc2cnc(OCc3ccccc3)nc21 2.44%, O=C(OCCN1CCOCC1)C1(c2ccccc2)CCCCC1 -9.1% and -0.948% and -22.3%, CC(C)C[C@H](NC(=O)[C@H](Cc1ccccc1)NC(=O)c1cnccn1)B(O)O 5.79% and -0.915%, CC(C)CN1CC[C@@]2(CCCN(C(=O)c3cc(C(F)(F)F)cc(C(F)(F)F)c3)C2)C1 -32.9%, CCOC(=O)OC(C)OC(=O)C1N2C(=O)C(NC(=O)C(N)c3ccccc3)C2SC1(C)C (centres undefined) 6.33%, COc1cc(OC)c2cc(-c3ccncc3)cnc2c1 -15.1%, O=C(COc1ccc(Cl)cc1)OCCNC12CC3CC(CC(C3)C1)C2 2.49%, O=C(c1ccncc1)N1CCC2(CC1)CN(Cc1cc(C(F)(F)F)cc(C(F)(F)F)c1)C2 -20.2%, COCCn1c(=O)cnc2cnc(N3CCOCC3)nc21 -5.69%

Reference: PubChem BioAssay AID1645887 (National Center for Advancing Translational Sciences (NCATS), 2021)
